From the supplement of paper PMC11417369
± gives the standard deviation of the averaged measurements. Some of the results follow.

system: PfAP2-I AP2 domain 3 (GST-tagged); experiment: gcPBM binding intensity (ln(normalized median fluorescence intensity)); higher = stronger DNA binding
Summary of the method: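 Probes on an Agilent 4 × 180k array were primer-extended, double-stranded and 36 bp long, taken from intergenic genomic regions, with negative controls added. GST-tagged P. falciparum DNA-binding domains from E. coli, about 25 μg on average, were applied to the array for 1 h in 1× PBS containing 1% milk, 0.2 mg/ml BSA, 0.5% salmon testes DNA and 0.03% Triton X-100. Binding intensity, obtained after Alexa488 anti-GST antibody detection and a 488 nm scan, is the highest Masliner-normalised natural-log median intensity across replicate spots of either probe orientation.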

Sequence | gcPBM binding intensity (ln)
CATGCCTTTAAAAAGGTGCAAACATTTTCACAAACA | 10.4 ± 0.35
AACAAAATAAGACACACACACAAATGTACCTATATA [CACACA_site7189] | 7.96 ± 0.47
TCTTTTTTAAATAAAAGTACAAAAAAAAATAAAAAA [XGTACX_site2670] | 8 ± 0.27
CGAATAAATATATGTAGTACATGTTGTAGATAATTT [XGTACX_site1218] | 8.01 ± 0.48
TCTTTCTATTAAACATGTACTTGTCTAAAGACATAA [XGTACX_site8564] | 7.89 ± 0.55
TATATATATTTAAATTGTACATATATTATTCATATG [XGTACX_site911] | 7.87 ± 0.58
AATAATATATATTACTGTACTAATATAAGGGACATC [XGTACX_site3744] | 8.14 ± 0.41
TTGTCAAAAATTACACACATAAATGAATAAATAAAT [XGTACX_negctrl_site541] | 7.59 ± 0.57
ATTTATGAAAAAAATACATGCATGTCCATATAAATT [TGCATGCA_site505] | 7.8 ± 0.72
TTATTTTCTACAAATTGTACATATTTTTTACTACTC [XGTACX_site1394] | 8.22 ± 0.47
ACATATATATATATTACACACACACTAATAAAATAA [CACACA_site7920] | 8.14 ± 0.33
TTTCAAGAATTATATAAACACACATACATACACCCA [CACACA_site8592] | 8.43 ± 0.18
TTTTATAATTTATCTAAAAAAAAATAAAATAAAATG [TGCATGCA_negctrl_site429] | 7.66 ± 0.36
ATAAAATAAAATAAAAGTACATAAATATATATATAT [XGTACX_site6110] | 9.22 ± 0.085
TTTTTTTTTCTTTGCACACAGATAACTTGAAATTTG [CACACA_site2185] | 9.21 ± 0.38
ATAAGGATCAGACACAAACACACATATATATATATA [CACACA_site558] | 9.36 ± 0.34
AAATAATTCATATGTTGTACAGTAATTAAATTTTCT [XGTACX_site6343] | 7.68 ± 0.58
ATAATTAATCCAAAATGTACTTACATTTTATATGAA [XGTACX_site8888] | 7.72 ± 0.45
TGTTTTGTTATTTTTATTTATATAAATAAAGCTATA [GTGCAC_negctrl_site88] | 7.84 ± 0.55
ATATATATATTATATGCACACTAATAAGACTATTTA [CACACA_site5880] | 9.66 ± 0.11
CATAAATACAGTAACACACACAAAAAAATATGAATA [CACACA_site6066] | 7.75 ± 0.56
ATATATATATTTTATTGTACAAAAAAAAAAAAAAAA [XGTACX_site6803] | 8.85 ± 0.21
TTGTTATGCATTGGTTGTACATAAGTATAAGTAATT [XGTACX_site5401] | 8.12 ± 0.4

Sequence | gcPBM binding intensity (ln)
CCATTATACACAATATGTACATATATATAATCATTT [XGTACX_site7942] | 8.04 ± 0.43
AAAAAAAAAATATGTACACACATATAAAATACATAA [CACACA_site6869] | 7.89 ± 0.27
ATAGGATTCTCAAAGTGTACTTGTCTACTGTAGTTT [XGTACX_site4202] | 7.62 ± 0.49
GAGGAAAAAAAAAAAAGTACATTATATAAGAAAATT [XGTACX_site2610] | 7.84 ± 0.32
TTAAATATTTATATTTGTACACAATCAATCATACAC [XGTACX_site5793] | 8.2 ± 0.11
AATTATAATAATAATAGTACATAAGTATATAAATAA [XGTACX_site2400] | 7.69 ± 0.62
TCTTTCTAAATCTTACAAATTACTAAAATATTTATA [CACACA_negctrl_site87] | 7.49 ± 0.57
AAAAAAAAAAAAAAAAGTACAAATTTAAAAATGTGT [XGTACX_site112] | 8.68 ± 0.35
TTGGTTTCTTGTTTTTGTACCCATAATTTGTAATAT [XGTACX_site1248] | 8.42 ± 0.52
ATCACATTCCACGGTACACACTAAAAGAAAAATCAG [CACACA_site5907] | 8.29 ± 0.17
ATTTATATTTAATATACACACATTATTTTTTTATAT [CACACA_site574] | 7.88 ± 0.54
AGAGTACAAGTAAATACACACATATATATGAAAATA [CACACA_site1079] | 7.82 ± 0.55
CACATATATACACATACACACACACCCATACACCCA [CACACA_site8505] | 8.28 ± 0.12
TTTACATTTTAGGAAGTGCATATAATAAATACTATC | 9.89 ± 0.21
TACATAAATACATACACACACATATAACCAATGTAG [CACACA_site5243] | 7.91 ± 0.4
TATAATATGACAAGAAGTACATATATTTACATATAT [XGTACX_site1571] | 7.54 ± 0.29
ATATAATATTTTAGAGTGCACCGATAACAATAAATA [GTGCAC_site9754] | 10.4 ± 0.17
AAAAGATAAAAAGAAGTGCATAATAGGAACAAATAT [GTGCAC_site9717] | 10.7 ± 0.24
TATATGTGGGTTTTTTTTATGTGTTTTTCTTTTTTT [CACACA_negctrl_site936] | 7.97 ± 0.49
CATTTCATTAATAAATGTACTTGTGAAGAGAAAAAG [XGTACX_site3115] | 7.89 ± 0.56
ACAAAATTTACAAAATGTACAAAATATACAAAATGT [XGTACX_site3543] | 7.61 ± 0.5
TGTTATTCTGCATATACACACAAATAACAATTTAAA [CACACA_site6943] | 8.43 ± 0.18
TAAGATATAAAAAATGTGCACATTAAAGTATTAATT | 9.46 ± 0.45

Sequence | gcPBM binding intensity (ln)
TCTTATGATGGAATGTTAAATATTACATTTTGTTTA [TGCATGCA_negctrl_site503] | 7.32 ± 0.44
TTTATATAGAAACACACACACAAAAAAAAAAAAAAA [CACACA_site2646] | 8.11 ± 0.54
TTACAAAAAAAAAGGCGCGGATGGGGGCAATAGCAA [CACACA_negctrl_site238] | 9.38 ± 0.35
CAAAAAAAAAAAAAAACACACATTAAATTATAAAGA [CACACA_site2613] | 7.67 ± 0.32
TAATGTTTCAAAATTTAATATACTACAAATATTATA [TGCATGCA_negctrl_site336] | 7.17 ± 0.42
ATGAACATCCAATATACACACATATATATTTATATT [CACACA_site829] | 7.86 ± 0.65
TTCTACATGAAGTTATAAATTAATATTTTAATTTAT [XGTACX_negctrl_site134] | 7.24 ± 0.42
AATAAATAAATAAGTACACACATATAAATATAAATA [CACACA_site6271] | 7.91 ± 0.25
TACTTTATTTTTTATACACACACAATATGTATATAT [CACACA_site9184] | 8.05 ± 0.58
GTATTTCTTTAATATACACACACCAAAACAAAAAAA [CACACA_site579] | 8.13 ± 0.49
ATATATATATATATATATATAATAAAAGATCATTTA [XGTACX_negctrl_site371] | 9.4 ± 0.73
ATAATAAAAAGAAAAAGTACAAATGATTATGTTTGA [XGTACX_site3615] | 8.11 ± 0.81
CAAGTATTATATTGCGCATGCAAAGAAGGACACAAA [TGCATGCA_site1024] | 8.62 ± 0.47
TTATCTAGTACATACATACACACAACCATGTTATGA [CACACA_site3988] | 7.91 ± 0.39
TTACTTTTTTTTTTATGTACTTATATTTTTTACACT [XGTACX_site3503] | 8.17 ± 0.37
TATGAATACATTTGTTGTACTTAAATTTCCTTTATT [XGTACX_site5374] | 7.62 ± 0.52
AAATAATTTATGCATACACACATATATATATATATA [CACACA_site4020] | 9.52 ± 0.58
TATAAATATCTGAATTGTACAGGTGAAAAAAAAAAT [XGTACX_site1867] | 8.04 ± 0.62
TTTTTTATTATTATTATTTTTTATGTATAATAATGT [CACACA_negctrl_site631] | 7.59 ± 0.45
TAGATATATAAATACACACACATACACAAAAAAAAA [CACACA_site7652] | 8.21 ± 0.45
GTACAATCATATACTACATGCAGTTTTTTTTATTGA [TGCATGCA_site230] | 8.01 ± 0.62
AAATAAATACATAATACATGCATATTTAATATATAG [TGCATGCA_site135] | 7.93 ± 0.25
TTTTCTTTTTCTTGTACACACATAATATGGATGAAA [CACACA_site808] | 8.06 ± 0.42

Sequence | gcPBM binding intensity (ln)
AATTTTTTTTAATGATGTACTTTTTGAAAATAAACT [XGTACX_site4221] | 7.66 ± 0.5
ATATATATATATATTTATTCATATATTTTTTGTCTT [TGCATGCA_negctrl_site58] | 9.35 ± 0.57
TTTTTATTTTTTCAGTGTACATTTAAATTATCTTAT [XGTACX_site3905] | 8.16 ± 0.54
TAAAGAAACGCATCGACGCACACTACAAAATAAAAA [CACACA_site1348] | 8.14 ± 0.51
TTTTTCTTTCTATTTATCAATATTAAAAAAAAAAAA [CACACA_negctrl_site1629] | 7.8 ± 0.5
TTTTTATAATGATACATATATTATTTTATTCTTAAT [CACACA_negctrl_site124] | 7.37 ± 0.59
TATACATGTATATATTGTACATATGTTTTTTTTACA [XGTACX_site3300] | 7.69 ± 0.61
TTTTTTCAAATTTTCTTTTTTCTTTTGTTTTTTTTG [CACACA_negctrl_site380] | 7.29 ± 0.5
TTACTCATGAAAGATACACACATTCGTTATTTATAT [CACACA_site7517] | 7.63 ± 0.67
TAAATTATTATCCCCTCACACACAAAAATAAAAAGA [CACACA_site2886] | 8.56 ± 0.25
TATTTATAAACATACGCACACATTAATATATATATA [CACACA_site9314] | 9.14 ± 0.085
GAAGAAGTTTAAAAAGCACACAAAAAAAAAAAAAAA [CACACA_site9088] | 8.26 ± 0.66
CACAAAATAAATTAAACACACAACATCATATATGTA [CACACA_site846] | 7.49 ± 0.42
CTTGTAGATATAAAATGTACAAAAATAAATTGCACA [XGTACX_site4409] | 9.94 ± 0.7
AGATATTCTACTATGTGTACATATATATATATAATT [XGTACX_site5060] | 8.1 ± 0.18
ATTATTATTAATCTTGTGCACATATATTTTAATTAG | 10.6 ± 0.23
TATAAACGTATAATATGTACACACACATATATACAA [XGTACX_site1686] | 7.75 ± 0.27
ATTATATAGAATTGTACATGCGAATTGTATAACGAT [TGCATGCA_site125] | 7.89 ± 0.7
TATTTTTTTTTTTTTTTTTTTTTTATATATACATAT [CACACA_negctrl_site23] | 7.45 ± 0.54
AAAAAAAAAAAAAAAAATATATTTATGAAATAAAAA [TGCATGCA_negctrl_site262] | 8.63 ± 0.042
